“And” between values parts separate entries of the source, which are not always exact repeats. Equal entries are not always repeated. Hit rate of the full screen: of about 420,000 compounds, about 64,000 (15%) were called active. The inconclusive results got no clear call from the source; some entries with a clear call stand among them for comparison. The call rests on the fitted dose curve; in most records, active means well fitted inhibition curve with a large enough effect; inconclusive means small, poorly fitted or top-dose-only effect; inactive means flat fitted curve, though single readings scatter. Potencies of inconclusive entries are doubtful fits and often do not repeat.
Assay: qHTS for Inhibitors of human tyrosyl-DNA phosphodiesterase 1 (TDP1): qHTS in cells in absence of CPT; further: nearly all actives have a fitted effect of over 55% in size
Conditions: DT40 Tdp1-/- hTDP1 cells, no CPT, ATP luminescence, 48 h; activity change, negative = growth inhibition: at 46.2 µM (top of the series) unless noted
How it was run: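 Stably hTDP1-transfected Tdp1-null chicken DT40 cells were treated with library compounds minus camptothecin and grown for at least 48 hr at 37 °C, after which cellular ATP was quantified by luminescence.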
In the case of C/C(=N\NC(=O)COc1ccc(C(C)(C)C)cc1)c1cc2ccccc2o1, the Potency is reported as inconclusive: 25.9 µM [inhibitor, single point]. For Cc1ccc(C(=O)C[n+]2ccc3ccccc3c2)cc1, the Potency was active: 14.6 µM. In the case of Cc1ccc(Nc2c3c(nc4nncn24)CCC3)cc1C, the Potency is reported as active: 16.4 µM. With O=C(COc1ccccc1)Nc1ncn[nH]1 the “activity change, negative = growth inhibition” value was inactive: -3.17%. With Cc1c(C(=O)NCc2ccccc2C(F)(F)F)sc(=O)n1Cc1ccc2ccccc2c1 the Potency was inconclusive: 29.1 µM [inhibitor, single point]. In the case of O=[N+]([O-])c1cc(-c2ccc(C(=S)N3CCOCC3)o2)ccc1Cl, the Potency is reported as inconclusive: 29.1 µM [inhibitor, single point]. In the case of Nn1c(SCC(=O)Nc2ccccc2Br)nnc1-c1ccco1, the “activity change, negative = growth inhibition” value is reported as inactive: 20.8%. With Cc1ccc(NC(=O)CN(C)C(=O)Cn2nnc(-c3ccccc3C)n2)cc1 the Potency was inconclusive: 29.1 µM [inhibitor, single point]. In the case of O=C(CN1C(=O)c2ccccc2C1=O)Nc1cc(C(=O)O)cc(C(=O)O)c1, the “activity change, negative = growth inhibition” value is reported as inactive: 18.1%. With CCc1ccccc1NC(=O)Nc1ccon1 the “activity change, negative = growth inhibition” value was inactive: 2.12%. For O=C(NCCc1ccccc1)/C(=C/c1ccco1)c1ccccc1, the Potency was inconclusive: 29.1 µM [inhibitor, single point]. For CC(C)n1c(C(O)c2ccc3c(c2)OCO3)nc2ccccc21 (centres undefined), the Potency was inconclusive: 20.6 µM [inhibitor, single point]. With CCN1C(=O)/C(=C/c2cn(-c3ccccc3)nc2-c2cccnc2)SC1=S the “activity change, negative = growth inhibition” value was inactive: -33.6%. In the case of CSCCC(C(=O)NCc1ccccc1)n1c(Cc2cc(F)cc(F)c2)nc2ccccc21 (centres undefined), the Potency is reported as inconclusive: 29.1 µM [inhibitor, single point]. For O=C(CN1C(=O)COc2ccc(S(=O)(=O)N3CCOCC3)cc21)NCc1ccc(F)cc1, the “activity change, negative = growth inhibition” value was inactive: -14.8%. With Clc1ccc(-n2c(SC/C=C/c3ccccc3)nnc2-c2cccnc2)cc1 the Potency was inconclusive: 1.64 µM [inhibitor, full curve, poor fit]. In the case of O=C(Nc1ccc(F)cc1)c1c(Cl)nc2ccccn12, the Potency is reported as inconclusive: 0.517 µM [inhibitor, full curve]. For NS(=O)(=O)c1ccc(CCNCc2cc(Cl)ccc2OCc2ccccc2)cc1, the Potency was inconclusive: 8.2 µM [inhibitor, single point]. With COc1ccc(F)cc1CSc1nnnn1-c1ccc(O)cc1 the Potency was inconclusive: 16.4 µM [inhibitor, partial curve]. With CCOC(=O)c1c(C)oc2nc(C)nc(NCc3ccc(Cl)cc3)c12 the Potency was inconclusive: 10.3 µM [inhibitor, partial curve]. For O=C(CCN1CCN(c2ccccc2)CC1)N/N=C/c1ccc(O)c(O)c1O, the Potency was inconclusive: 29.1 µM [inhibitor, single point]. With Cn1ccc2c(N3CCOCC3)cc3c(c21)C1CCC3C1 (centres undefined) the activity change, negative = growth inhibition was inconclusive: -30.5% [inhibitor]. For Cc1ccc2cc(C#N)c(N3CCCN(C(=S)NCCCN(C)C)CC3)nc2c1, the Potency was active: 14.6 µM. For Nc1c(C(=O)c2ccc(Cl)cc2)sc2nsc(SCCN3CCOCC3)c12, the Potency was active: 9.2 µM. In the case of O=[N+]([O-])c1cc(C(F)(F)F)cc([N+](=O)[O-])c1N1CCN(S(=O)(=O)c2ccccc2)CC1, the Potency is reported as inconclusive: 29.1 µM [inhibitor, single point]. In the case of Cc1ccc2oc(C(=O)N3CCN(c4cccc(C)n4)CC3)c(C)c2c1, the Potency is reported as inconclusive: 29.1 µM [inhibitor, single point]. In the case of Cc1ccc2oc(-c3cccc(NC(=O)c4ccc(Br)o4)c3C)nc2c1, the Potency is reported as inconclusive: 20.6 µM [inhibitor, single point]. In the case of CCn1cc(C(=O)N2CCN(c3ccccc3F)CC2)c(=O)c2cc(S(=O)(=O)N(C)C3CCCCC3)ccc21, the Potency is reported as inconclusive: 18.4 µM [inhibitor, partial curve]. In the case of CC(=O)Nc1ccc(C(=O)OCC(=O)Nc2ccc([N+](=O)[O-])cc2C(F)(F)F)cc1, the Potency is reported as inconclusive: 29.1 µM [inhibitor, single point]. In the case of COc1cc(NC(=O)c2ccccc2)ccc1NC(=O)c1cc2ccccc2o1, the Potency is reported as “inactive and inconclusive: 2.91 µM [inhibitor, partial curve]”. With CC(C)N=C(Nc1ccccc1)c1cccnc1 the Potency was inconclusive: 32.6 µM [inhibitor, partial curve, poor fit]. In the case of COc1ccc(NC(=O)C(OC(=O)c2cnc(C)cn2)c2ccccc2)cc1Cl (centres undefined), the Potency is reported as inconclusive: 16.4 µM [inhibitor, single point]. With Cc1cccc(NC(=O)c2nc(S(C)(=O)=O)ncc2Cl)c1 the Potency was active: 0.92 µM. In the case of CCOc1ccc(NC(=O)C2C(C(=O)O)C3(Cl)C(Cl)=C(Cl)C2(Cl)C3(Cl)Cl)cc1 (centres undefined), the “activity change, negative = growth inhibition” value is reported as inactive: 4.31%. For COc1ccc(CCNC(=O)CSc2nc3[nH]ncc3c(=O)n2-c2ccc(Br)cc2)cc1OC, the Potency was inconclusive: 29.1 µM [inhibitor, single point]. With NC(=O)C1CCCN(C(=O)CCC(=O)c2cccs2)C1 (centres undefined) the “activity change, negative = growth inhibition” value was inactive: 8.92%. In the case of COc1ccc(CCNC(=O)COc2ccc(-c3ccc(C)cc3)cc2)cc1OC, the Potency is reported as inconclusive: 25.9 µM [inhibitor, single point]. With Oc1ccccc1-c1cc(-c2cccc(F)c2)n[nH]1 the “activity change, negative = growth inhibition” value was inactive: -12.6%. For CCc1ccc(OCC(=O)Nc2ccncc2)c(Br)c1, the Potency was active: 10.3 µM. In the case of O=C(NNC(=S)NC(=O)c1cccnc1)c1ccc(Cl)cc1, the Potency is reported as active: 14.6 µM. With COc1ccc(-c2cc3ccc(O)c(CN4CCOCC4)c3oc2=O)cc1 the Potency was inconclusive: 16.4 µM [inhibitor, partial curve]. In the case of Cc1ccccc1N1CCN(S(=O)(=O)c2nnc(NC(=O)CC(C)C)s2)CC1, the Potency is reported as inconclusive: 23.1 µM [inhibitor, partial curve]. For COc1ccc(C(C)=O)cc1CN(c1ccccc1OC)S(=O)(=O)c1cccs1, the Potency was inconclusive: 9.2 µM [inhibitor, partial curve]. In the case of N#Cc1cccc(-c2csc(C(O)c3ccc(F)cc3)n2)c1 (centres undefined), the Potency is reported as inconclusive: 18.4 µM [inhibitor, single point]. In the case of COC(=O)c1c(SC)nc2ccccc2c1OCc1ccccc1C, the Potency is reported as active: 13 µM. In the case of O=C(N/N=C/c1ccc(F)c(F)c1)c1cc2c(s1)-c1ccccc1CC2, the Potency is reported as inconclusive: 18.4 µM [inhibitor, single point]. In the case of CNC(=O)C1(C)CCN1C(=O)Cc1ccc(C(C)C)cc1 (centres undefined), the “activity change, negative = growth inhibition” value is reported as inactive: -18.4%. In the case of CN(CCc1ccccc1)C(=O)c1ccc(NC(=O)Cc2ccc([N+](=O)[O-])cc2)cc1, the Potency is reported as inconclusive: 13 µM [inhibitor, partial curve]. In the case of COc1cc(C(=O)NCC(=O)N2CCN(S(=O)(=O)c3ccccc3C(F)(F)F)CC2)cc(OC)c1OC, the Potency is reported as inconclusive: 29.1 µM [inhibitor, single point]. With CN(Cc1cccc(F)c1)C(=O)C(c1ccccc1)c1ccccc1 the “activity change, negative = growth inhibition” value was inactive: -23.4%. In the case of COc1ccc(NC(=S)N2CCC3CC2c2cc(-c4ccc5c(c4)OCO5)ccc23)c(OC)c1 (centres undefined), the Potency is reported as inconclusive: 20.6 µM [inhibitor, single point]. For COc1ccc(CNC(=O)C(c2ccc(C)o2)N(C(=O)c2snc(C(N)=O)c2N)c2ccccc2OC)cc1 (centres undefined), the “activity change, negative = growth inhibition” value was inactive: -20.8%. For Cc1ccccc1C(=O)N1CC(=O)Nc2ccc(F)cc2C1c1ccc(F)cc1 (centres undefined), the activity change, negative = growth inhibition was inconclusive: -35.3% [inhibitor]. In the case of C1CN(CC2CCN(c3nc4nonc4nc3N3CCSCC3)CC2)CCO1, the “activity change, negative = growth inhibition” value is reported as inactive: -0.137%. With Cc1cccc(N2CCN(C(=S)c3ccccc3)CC2)c1 the Potency was inconclusive: 18.4 µM [inhibitor, single point]. With O=[N+]([O-])c1ccc(N/N=C/c2ccccc2O)cc1 the Potency was active: 8.2 µM. With O=C(CCn1c(=O)c2ccccc2n(Cc2ccc(F)cc2Cl)c1=O)NCc1ccc2c(c1)OCO2 the Potency was inconclusive: 7.31 µM [inhibitor, partial curve, poor fit]. In the case of C1=NN(c2ccccc2)C=NN1c1ccccc1, the activity change, negative = growth inhibition is reported as inconclusive: -30.6% [inhibitor]. For COc1ccc2[nH]cc(CC(N)C(=O)O)c2c1 (centres undefined), the Potency was inconclusive: 29.9 µM [inhibitor, partial curve, poor fit]. In the case of CC(C)[C@H](NC(=O)[C@@H]1Cc2ccccc2CN1C(=O)OC(C)(C)C)C(=O)NCc1ccco1, the Potency is reported as inconclusive: 23.1 µM [inhibitor, single point]. For Cc1nc(-c2ccccc2)sc1-c1ccnn1C, the Potency was inconclusive: 14.6 µM [inhibitor, partial curve]. In the case of Cc1cccnc1Nc1nc(-c2ccc(O)cc2O)cs1, the Potency is reported as inconclusive: 18.4 µM [inhibitor, single point]. With CCC(C)NC(=O)CSc1nc2c(sc(=S)n2Cc2ccco2)c(=O)n1-c1ccccc1 (centres undefined) the Potency was inconclusive: 14.6 µM [inhibitor, partial curve]. In the case of COc1ccc(C(=O)N(C)C2CCCc3ccccc32)cc1OC1CCN(C(C)C)CC1 (centres undefined), the Potency is reported as inconclusive: 18.4 µM [inhibitor, single point]. With Cn1ncc(N)c1C(=O)Nc1cccc(C(F)(F)F)c1 the Potency was inconclusive: 20.6 µM [inhibitor, single point]. In the case of CN(Cc1ccccc1)C(=O)c1cccc(NC(=O)c2ccco2)c1, the “activity change, negative = growth inhibition” value is reported as inactive: -9.77%. For O=C(c1ccccc1)N1CCN(c2ccc([N+](=O)[O-])c(NCC3CCCO3)c2)CC1 (centres undefined), the Potency was inconclusive: 29.1 µM [inhibitor, single point]. In the case of C[C@@H]1CN([C@H](C)CO)C(=O)CCCn2nncc2CO[C@@H]1CN(C)C(=O)Nc1cccc2ccccc12, the “activity change, negative = growth inhibition” value is reported as inactive: -29.3%. In the case of CCOC(=O)C1CCN(C(=O)C2CCN(C3=NS(=O)(=O)C(c4ccc(C)cc4)=C3CC)CC2)CC1, the Potency is reported as inconclusive: 16.4 µM [inhibitor, single point].

— PubChem BioAssay AID686978 (National Center for Advancing Translational Sciences (NCATS), 2013)
On the % scale 0 is the no-effect control and ±100 the full control effect; potency means the concentration at half of the fitted maximal effect; tags describe the fitted curve by direction and shape.
